The source gives no read counts; variants with many changes may rest on few reads.
B1: LINE1-mini (parent)
chain: GGCAGAGCUCAACACAGCGUGGCAAAGUGGCUGUGGCUAGACUGCC

Variants of: B1
Assay: self-cleavage, relative activity (ratio to wild type); higher = more cleavage; in vitro, sequencing; the parent is a self-cleaving ribozyme

| Variant | self-cleavage |
| --- | --- |
| A4G G29C G30U | 0.15 |
| A4U C15U U20C C23G | 0.56 |
| A4U A6C U9G A39G | 0.04 |
| A4U G7C G33U C46A | 0.02 |
| A4U C15U A26C C37G G40A | 0.05 |
| A4G G7C C10U U20C G29U | 0.02 |
| A4U C8A C13A A26U | 0.05 |
| A4U C42U C46U | 0.11 |
| A4G A6G U28A | 0.24 |
| A4U A14U U38G | 0.08 |
| A4U C10A G17U | 0.04 |
| A4U G5A G17U G33A C37U U38A | 0.05 |
| A4U G5U U9G C37G | 0.13 |
| A4G G21A U34G | 0.14 |
| A4U G5U C18U U20G U32G | 0.01 |
| A4U A14G G35A C45G C46A | 0.17 |
| A4U G22C A24G G27A G36C | 0.1 |
| A4G G33A C37G A41C | 0.18 |
| A4G A14G U28G G30U G36U C37A | 0.33 |
| A4G C23A A25C | 1.74 |
| A4G G19U U34A | 0.01 |
| A4G G21U C23A A25G U34A | 0.06 |
| A4G U9G G22A C45U | 0.09 |
| A4U C18G C23U G44U | 0.02 |

| Variant | self-cleavage |
| --- | --- |
| A4G G17U U38C C46A | 0.05 |
| A4G G5A C10G C37G | 0.01 |
| A4U C18U A24C U32A G33C G44C | 0.02 |
| A4G C31U G44A | 0.11 |
| A4U G19U A24U | 0.06 |
| A4G G22C G36C | 0.16 |
| A4U A6C U32A C37G A41U | 0 |
| A4G G21U U28C G30C | 0.28 |
| A4U A12C G29U G30C | 0.05 |
| A4U C18U G22C A25G A41C | 0.03 |
| A4U G7U A12C G30A U32C G36C | 0.02 |
| A4G A12U A14G G27C | 0.11 |
| A4G G5C A39G C46A | 0.02 |
| A4U C15A G29C U38G | 0.02 |
| A4G C8G C15A | 0.05 |
| A4G C23A A41C | 0.04 |
| A4U A16G U28A G35C | 0.06 |
| A4G C15A A24C | 0.04 |
| A4U C18A U28G U34C | 0.01 |
| A4U A6C U20C C37A | 0.08 |
| A4U C37A C42A U43C | 0.08 |
| A4U G5A G17C C18G G36A | 0.08 |
| A4G G21A G27A | 0.42 |
| A4U C42U U43A | 0.83 |

| Variant | self-cleavage |
| --- | --- |
| A4G G22C U34G G44U | 0.1 |
| A4G G35U G40C | 0.3 |
| A4U A16U A39G | 0.01 |
| A4G G22A G40U | 0.04 |
| A4G U20G U43A | 0.25 |
| A4U C13G G21U G30U | 0.26 |
| A4G A14G G19C | 0.03 |
| A4G G30U U32A | 0.04 |
| A4U G17A U34C | 0.06 |
| A4U G21U G22U G33U C46G | 0.18 |
| A4U G7U G36U G44A | 0.31 |
| A4U C15A C18U A39U | 0.25 |
| A4G C10A A12U G19U G21U A25U G33U | 0.01 |
| A4U G7U U38G | 0.04 |
| A4U A12G G17U A41C | 0.03 |
| A4U C18G U20A U34G | 0.04 |
| A4G C23G G27U C45U | 0.12 |
| A4U C13U G21U U43A C46A | 0.1 |
| A4G C23G U32C | 0.06 |
| A4G U9C C23A G40U | 0.01 |
| A4U C15A C18U C23U U43C | 0.01 |
| A4G G5A C18U | 0.03 |
| A4G C10U U28A | 0.06 |
| A4G C8A A12C G40A C42A | 0.01 |

| Variant | self-cleavage |
| --- | --- |
| A4G G22C C37G A41U C42A | 0.15 |
| A4G A11G G22U | 0.03 |
| A4G C8U G30A A39U | 0.74 |
| A4G C8U A12U C23G | 0.1 |
| A4U G17U G27A | 0.24 |
| A4U G5A C23G G44C | 0.64 |
| A4G G5U A6G G30U G44C | 0.03 |
| A4U C13U G17U A26G | 0.16 |
| A4G C8U C13G C18U | 0.03 |
| A4U G27C G40A | 0.06 |
| A4G C15G C18A U28A G40U A41U | 0.07 |
| A4U G5U U43A | 0.08 |
| A4U A11C G27A | 0.03 |
| A4U C13A G22U C23A G30A A39U | 0.1 |
| A4G G21U C31U U38G | 0.02 |
| A4G C13G G30A | 0.06 |
| A4G G21C A39U | 0.27 |
| A4G G5C U20C | 0.04 |
| A4G G21C C45U | 0.09 |
| A4U G5A A24U A26U | 0.11 |
| A4G A12G U28C G30U | 0.08 |
| A4U C8A A26U | 0.14 |
| A4G U9A A16C G21C G29C | 0.16 |
| A4G G5U U9G C42G C46U | 0.02 |

| Variant | self-cleavage |
| --- | --- |
| A4U C23U G40A | 1.45 |
| A4U A11C A26C U38G C45G | 0.04 |
| A4G C13U U43C | 0.09 |
| A4G C18A U34G C42U | 0.02 |
| A4G C15A U28C U32C | 0.06 |
| A4U A41U C42A C45G | 0.01 |
| A4U G5A A11C | 0.05 |
| A4U G7C U20G G22A | 0.02 |
| A4G A6C G29C G36C C45A C46A | 0.31 |
| A4G G7U C37G | 0.01 |
| A4U C10A G27U | 0.03 |
| A4U C8U G21A A24U | 0.07 |
| A4U G7U G35U | 0.27 |
| A4G U20C U43A | 0 |
| A4G C15U A41G | 0.04 |
| A4G G5A G29C | 0.06 |
| A4U C13A G19A | 0.19 |
| A4U G27A U28C G33A | 0.12 |
| A4U G21U G30U C31A | 0.15 |
| A4G A24G C37G | 0.03 |
| A4G C10A G35U | 0.01 |
| A4G U28C C45U | 0.45 |
| A4U A39G C46G | 0.03 |
| A4G G22U A41C G44U | 0.02 |

| Variant | self-cleavage |
| --- | --- |
| A4G A12C C13U G17U G22A | 0.02 |
| A4G A6U G22A U38A | 0.04 |
| A4G G5A U20G C45G | 0.02 |
| A4U G19A A26U G30A C31G C45U | 0.01 |
| A4G C31G G44A | 0.04 |
| A4U G5U C13G | 0.12 |
| A4G G5U C45A | 0.03 |
| A4G C37A G44A C45A | 0.06 |
| A4G C15U G33U G36U C46U | 0.02 |
| A4G A12U C15A | 0.1 |
| A4G C8G C45U | 0.05 |
| A4G C37A C45A | 0.64 |
| A4U C18A G21A | 0.17 |
| A4G C13U U28G U38G C46U | 0.01 |
| A4U C13U G33A G36C | 0.04 |
| A4G G19U U32A C37U | 0.04 |
| A4U G19A C46A | 0.34 |
| A4G A12U C37G U38G | 0.01 |
| A4G A24G C45U | 0.09 |
| A4G A25U G40U | 0.11 |
| A4G C13G C42U | 0.05 |
| A4U C10U G19A U20C C23U C31U | 0.07 |
| A4G C13U A25C | 0.63 |
| A4U C10A A39C | 0 |

| Variant | self-cleavage |
| --- | --- |
| A4U G19U C45U | 0.04 |
| A4G C18G C45U | 0.08 |
| A4U G29U A41G | 0.12 |
| A4U A12U G21A C31U G40A C46U | 0.07 |
| A4U G22A U32A | 0.04 |
| A4U G17A A24U | 0.06 |
| A4U G7C A24G C37G U38C | 0.03 |
| A4G G21C C37A | 0.04 |
| A4G A25G U28C C37A A41U | 0.21 |
| A4U A16C C18A U32G U34C | 0.05 |
| A4G U32G A39U A41U | 0.04 |
| A4U C8U C37A | 0.26 |
| A4G A6C G7U A26U G40C | 0.29 |
| A4G G7C A24G | 0.54 |
| A4G C13G G22U | 0.06 |
| A4G U9G U38C | 0.26 |
| A4G C10U G36U A39U | 0.03 |
| A4G A26G G36A | 1.33 |
| A4G G40U C42A | 0.02 |
| A4G A14U A25U G27C | 0.04 |
| A4G G17A C18A G19C G21A | 0.29 |
| A4G C8A A26U G33A G40C | 0.16 |
| A4G C18A G40U | 0.16 |

From the RNAGym collection of RNA variant scans (doi:10.7554/elife.90254)
